Test results published in publication PMC6212790.
This is one part of the list. At the low end of the ranking the order means little.

Target: T1, GST-Rok (full length) (UniProt O34857)
T1 sequence: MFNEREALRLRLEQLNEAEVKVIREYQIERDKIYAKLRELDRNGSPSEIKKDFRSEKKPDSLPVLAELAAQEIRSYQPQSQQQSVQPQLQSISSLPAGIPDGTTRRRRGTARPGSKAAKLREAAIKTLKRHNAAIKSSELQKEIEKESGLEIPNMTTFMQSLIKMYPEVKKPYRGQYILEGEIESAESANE
Test: protein binding microarray;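 note: rank score from −0.5 (least bound) to 0.5 (best bound)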
Settings: Rok is a gene silencer of Bacillus subtilis; high values mean tight binding; most listed sequences are background and not binding sites; double strand, one strand shown

| Sequence | binding signal [E-score] |
| --- | --- |
| AGCTTTAG | 0.0381 |
| CTACCGCA | 0.267 |
| CATAGCAA | 0.165 |
| GTTAACCA | -0.0326 |
| AGTCCAGC | -0.258 |
| ATTTGGGG | -0.368 |
| CCCTCGCC | -0.381 |
| GTTTTCGA | 0.0689 |
| CATTCCGG | 0.131 |
| ATGATCAT | 0.176 |
| CATCGTAA | 0.169 |
| GGTGGTAA | 0.118 |
| ACTCAAAC | 0.0822 |
| CGATACAA | 0.185 |
| CTGAGTTA | 0.111 |
| ATCCAGTA | 0.261 |
| CTAATCAA | 0.165 |
| GTACGAAC | 0.106 |
| AGTATCTG | 0.189 |
| CAGATAGG | 0.0421 |
| ATCCACGG | -0.0964 |
| CTATAATC | 0.279 |
| GTTGGCGA | -0.0273 |
| ACACGTAA | 0.168 |
| AGAGGAGA | -0.0587 |

| Sequence | binding signal [E-score] |
| --- | --- |
| GCGTCACC | -0.305 |
| GCCTAGGC | -0.254 |
| CAGCATAC | 0.0509 |
| GCGGCTCC | -0.4 |
| CGCTTTCA | -0.0495 |
| CTCGAACC | -0.189 |
| GCCGGTAA | -0.0809 |
| AAGGAGAC | -0.306 |
| AGCAGTAT | 0.015 |
| AAACGGCT | 0.00482 |
| AAGCCTCT | -0.124 |
| ACGACTCG | -0.0329 |
| GCTGGTGA | -0.0724 |
| CCGTACCG | -0.185 |
| ATGTGATG | 0.0247 |
| CTCGCGCA | 0.00625 |
| AAGCCACG | -0.301 |
| AGCGACAA | -0.163 |
| AGTTAAGA | -0.036 |
| AACAATCG | 0.0545 |
| GGGCCTAC | -0.142 |
| TCCGTTCA | -0.167 |
| GCCTCAGA | -0.24 |
| AGGCTAAA | -0.137 |
| ACCTTAAC | -0.0118 |

| Sequence | binding signal [E-score] |
| --- | --- |
| CATGATCC | 0.0194 |
| TTAGTCAA | 0.25 |
| AAACGTGT | 0.029 |
| CCCACTGA | -0.229 |
| GGGCTTAA | -0.193 |
| GTCTCGCA | -0.158 |
| AGGTTTGC | 0.121 |
| ATTAGAAT | 0.148 |
| CACCACCC | -0.185 |
| ATTAAAGA | 0.0226 |
| CTGGAAGA | 0.0235 |
| CGGAGCTA | -0.0955 |
| ATTACGAG | 0.154 |
| AATTGCGA | 0.175 |
| CTGTGCGC | -0.0561 |
| CTGAAGAA | -0.11 |
| AATGTCTG | -0.0157 |
| CCCCCACA | -0.345 |
| AACTTGAT | 0.0397 |
| CCCGAAAG | -0.246 |
| GCCATCCC | -0.379 |
| AATGCCCA | -0.209 |
| CCGATGCC | -0.277 |
| GGTTATGA | -0.21 |
| ACGCCTTC | -0.0924 |

| Sequence | binding signal [E-score] |
| --- | --- |
| CCCCGGGC | -0.436 |
| ATTGAGAA | 0.109 |
| AGTTATAG | 0.316 |
| GCCTGCGC | -0.313 |
| AGCCGTTG | -0.208 |
| AATGGCTC | -0.205 |
| ATAACCAC | 0.156 |
| CCTGGTCC | -0.408 |
| AACCCCGT | -0.353 |
| ATTCGGAC | -0.199 |
| CCTCTTGA | -0.196 |
| CATCCGCA | -0.1 |
| GACATAAC | 0.176 |
| ATATGAGG | -0.0409 |
| CAGGGACC | -0.269 |
| CCGGCCTA | -0.151 |
| CAAACGTC | -0.0431 |
| AAACCCCA | -0.371 |
| GGGGGCTA | -0.326 |
| AGGATGCA | 0.11 |
| AAATGAGA | -0.0669 |
| CTTAGAGC | -0.264 |
| AGTTACGG | 0.148 |
| CATGTGTC | 0.153 |
| AAGAAGGA | -0.152 |

| Sequence | binding signal [E-score] |
| --- | --- |
| CTGGCAGC | -0.209 |
| AACCTTTC | -0.0613 |
| TTCTAGAA | 0.27 |
| GTTACTGA | 0.146 |
| CTAACAGA | 0.305 |
| GAGCGTAC | -0.222 |
| CAATAATC | 0.0735 |
| AATGTCGG | -0.0846 |
| AAAAGACG | 0.152 |
| GCTAGACA | 0.0674 |
| ATTCCACC | -0.0807 |
| CCCGCTCA | -0.215 |
| ATCCCGTG | -0.204 |
| GAACGTCC | -0.198 |
| ACCCCTGA | -0.234 |
| AGAACATG | 0.223 |
| GCTAGAAA | 0.37 |
| CTGAGTCC | -0.133 |
| CCAAACGG | -0.0104 |
| CCACCTAC | 0.011 |
| AATCGAAG | 0.0698 |
| CCAGACCG | -0.106 |
| GCAAGCAA | -0.286 |
| CTATTCGC | -0.0046 |
| AGGATGTA | 0.212 |

| Sequence | binding signal [E-score] |
| --- | --- |
| CTGTTTGA | -0.0886 |
| CAACTAGC | 0.203 |
| AAGGTAAC | -0.0144 |
| GATTTGTA | 0.249 |
| GGTTGAAC | -0.252 |
| CTCGGGTA | 0.00435 |
| GTTCCTAA | -0.069 |
| AAGTCAAG | -0.0478 |
| CGGTTGGA | -0.0455 |
| ATTGTACC | 0.239 |
| CTAACGCA | 0.101 |
| CATGAGAG | 0.0593 |
| GAACGCTA | 0.17 |
| AGCACGGA | -0.0324 |
| AATCCAAC | -2.47e-05 |
| CTGCCTAC | -0.0226 |
| AAGCCGCG | -0.227 |
| AGATTCGG | 0.0606 |
| ACCCCCCA | -0.367 |
| CTGAAGAC | -0.115 |
| ATCCTGTC | -0.0982 |
| AACTTATC | 0.134 |
| ACCTGACA | -0.0933 |
| CCTAGTCC | -0.227 |
| GACGTATA | 0.212 |

| Sequence | binding signal [E-score] |
| --- | --- |
| CTTGGGGC | -0.288 |
| GGAAATTA | 0.238 |
| GAATTCCA | 0.0902 |
| ACAAGCAT | 0.0565 |
| ATCCAACA | -0.0381 |
| AGGGTAAA | 0.204 |
| AAATAGTT | 0.4 |
| ATAGCAGG | -0.1 |
| AGTCGCGA | -0.177 |
| GCTTCTGA | -0.00659 |
| AATTCGGT | 0.158 |
| AAATGGTT | 0.13 |
| AGACGAAC | 0.0305 |
| GTACATGA | 0.133 |
| ATATATAA | 0.435 |
| GCTCAGGA | -0.0732 |
| ATCGATAG | 0.361 |
| AGCTTCGC | -0.0601 |
| CTGCCACA | -0.218 |
| AAACCGAT | -0.0521 |
| GTTAAGTA | 0.191 |
| TGTGAAAA | 0.0537 |
